# The supplement of paper PMC8728848
# The other results are listed elsewhere or left out.
# Key:
# Experiment in all cases: glycan array binding signal (z-score within array); higher = stronger binding
# Conditions in all cases: glycan notation: IUPAC condensed, linker removed
# [1] = biological target: Neu5Ac(a2-3)Gal(b1-4)GlcNAc(b1-6)GalNAc
# In short: (§1)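 The binding signal is a Z-score computed within each array and averaged over linkers. Arrays of the same protein sequence at different concentrations or buffers were also averaged together. Data originate from 3228 arrays in the Consortium for Functional Glycomics database, kept only where the protein sequence was available.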
# [2] = biological target: Neu5Ac(a2-3)Gal(b1-4)GlcNAc(b1-6)[Gal(b1-3)]GalNAc
# In short: as §1
# [3] = biological target: Neu5Ac(a2-3)Gal(b1-4)GlcNAc(b1-6)[Neu5Ac(a2-3)Gal(b1-3)]GalNAc
# In short: as §1
# [4] = biological target: Neu5Ac(a2-3)Gal(b1-4)GlcNAc6S
# In short: as §1
# [5] = biological target: Neu5Ac(a2-3)Gal(b1-4)[Fuc(a1-3)]GlcNAc
# In short: as §1
# [6] = biological target: Neu5Ac(a2-3)Gal(b1-4)[Fuc(a1-3)]GlcNAc(b1-2)Man
# In short: as §1
# [7] = biological target: Neu5Ac(a2-3)Gal(b1-4)[Fuc(a1-3)]GlcNAc(b1-3)Gal
# In short: as §1
# [8] = biological target: Neu5Ac(a2-3)Gal(b1-4)[Fuc(a1-3)]GlcNAc(b1-3)Gal(b1-4)GlcNAc
# In short: as §1
# [9] = biological target: Neu5Ac(a2-3)Gal(b1-4)[Fuc(a1-3)]GlcNAc(b1-3)Gal(b1-4)[Fuc(a1-3)]GlcNAc(b1-3)Gal(b1-4)[Fuc(a1-3)]GlcNAc
# In short: as §1
# [10] = biological target: Neu5Ac(a2-3)Gal(b1-4)[Fuc(a1-3)]GlcNAc(b1-3)GalNAc
# In short: as §1
# [11] = biological target: Neu5Ac(a2-3)Gal(b1-4)[Fuc(a1-3)]GlcNAc(b1-6)[Gal(b1-3)]GalNAc
# In short: as §1
# [12] = biological target: Neu5Ac(a2-3)Gal(b1-4)[Fuc(a1-3)]GlcNAc(b1-6)[Neu5Ac(a2-3)Gal(b1-3)]GalNAc
# In short: as §1
# [13] = biological target: Neu5Ac(a2-3)Gal(b1-4)[Fuc(a1-3)]GlcNAc6S
# In short: as §1
# [14] = biological target: Neu5Ac(a2-3)Gal6S(b1-4)GlcNAc
# In short: as §1
# [15] = biological target: Neu5Ac(a2-3)Gal6S(b1-4)[Fuc(a1-3)]GlcNAc
# In short: as §1
# Neu5Ac(a2-3)GalNAc = biological target: Neu5Ac(a2-3)GalNAc
# In short: as §1
# [16] = biological target: Neu5Ac(a2-3)GalNAc(b1-4)GlcNAc
# In short: as §1
# [17] = biological target: Neu5Ac(a2-3)[GalNAc(b1-4)]Gal(b1-4)Glc
# In short: as §1
# [18] = biological target: Neu5Ac(a2-3)[GalNAc(b1-4)]Gal(b1-4)GlcNAc
# In short: as §1
# [19] = biological target: Neu5Ac(a2-3)[GalNAc(b1-4)]Gal(b1-4)GlcNAc(b1-3)GalNAc
# In short: as §1
# [20] = biological target: Neu5Ac(a2-3)[Neu5Ac(a2-6)]GalNAc
# In short: as §1
# Neu5Ac(a2-6)Gal = biological target: Neu5Ac(a2-6)Gal
# In short: as §1
# [21] = biological target: Neu5Ac(a2-6)Gal(b1-3)GlcNAc(b1-3)[Gal(b1-4)GlcNAc(b1-6)]Gal(b1-4)Glc
# In short: as §1
# Neu5Ac(a2-6)Gal(b1-4)Glc = biological target: Neu5Ac(a2-6)Gal(b1-4)Glc
# In short: as §1
# [22] = biological target: Neu5Ac(a2-6)Gal(b1-4)GlcNAc
# In short: as §1
# [23] = biological target: Neu5Ac(a2-6)Gal(b1-4)GlcNAc(b1-2)Man
# In short: as §1
# [24] = biological target: Neu5Ac(a2-6)Gal(b1-4)GlcNAc(b1-2)Man(a1-3)Man(b1-4)GlcNAc(b1-4)GlcNAc
# In short: as §1
# [25] = biological target: Neu5Ac(a2-6)Gal(b1-4)GlcNAc(b1-2)Man(a1-3)[Gal(b1-4)GlcNAc(b1-2)Man(a1-6)]Man(b1-4)GlcNAc(b1-4)GlcNAc
# In short: as §1
# [26] = biological target: Neu5Ac(a2-6)Gal(b1-4)GlcNAc(b1-2)Man(a1-3)[GlcNAc(b1-4)][Neu5Ac(a2-6)Gal(b1-4)GlcNAc(b1-2)Man(a1-6)]Man(b1-4)GlcNAc(b1-4)GlcNAc
# In short: as §1
# [27] = biological target: Neu5Ac(a2-6)Gal(b1-4)GlcNAc(b1-2)Man(a1-3)[Man(a1-6)]Man(b1-4)GlcNAc(b1-4)GlcNAc
# In short: as §1
# [28] = biological target: Neu5Ac(a2-6)Gal(b1-4)GlcNAc(b1-2)Man(a1-3)[Neu5Ac(a2-3)Gal(b1-4)GlcNAc(b1-2)Man(a1-6)]Man(b1-4)GlcNAc(b1-4)GlcNAc
# In short: as §1
# [29] = biological target: Neu5Ac(a2-6)Gal(b1-4)GlcNAc(b1-2)Man(a1-3)[Neu5Ac(a2-6)Gal(b1-4)GlcNAc(b1-2)Man(a1-6)]Man(b1-4)GlcNAc(b1-4)GlcNAc
# In short: as §1
# [30] = biological target: Neu5Ac(a2-6)Gal(b1-4)GlcNAc(b1-2)Man(a1-3)[Neu5Ac(a2-6)Gal(b1-4)GlcNAc(b1-2)Man(a1-6)]Man(b1-4)GlcNAc(b1-4)[Fuc(a1-6)]GlcNAc
# In short: as §1
# [31] = biological target: Neu5Ac(a2-6)Gal(b1-4)GlcNAc(b1-2)Man(a1-6)Man(b1-4)GlcNAc(b1-4)GlcNAc
# In short: as §1
# [32] = biological target: Neu5Ac(a2-6)Gal(b1-4)GlcNAc(b1-2)Man(a1-6)[Gal(b1-4)GlcNAc(b1-2)Man(a1-3)]Man(b1-4)GlcNAc(b1-4)GlcNAc
# In short: as §1
# [33] = biological target: Neu5Ac(a2-6)Gal(b1-4)GlcNAc(b1-2)Man(a1-6)[GlcNAc(b1-2)Man(a1-3)]Man(b1-4)GlcNAc(b1-4)GlcNAc
# In short: as §1
# [34] = biological target: Neu5Ac(a2-6)Gal(b1-4)GlcNAc(b1-2)Man(a1-6)[Man(a1-3)]Man(b1-4)GlcNAc(b1-4)GlcNAc
# In short: as §1
# [35] = biological target: Neu5Ac(a2-6)Gal(b1-4)GlcNAc(b1-2)[Neu5Ac(a2-6)Gal(b1-4)GlcNAc(b1-4)]Man(a1-3)[GlcNAc(b1-4)][Neu5Ac(a2-6)Gal(b1-4)GlcNAc(b1-2)[Neu5Ac(a2-6)Gal(b1-4)GlcNAc(b1-6)]Man(a1-6)]Man(b1-4)GlcNAc(b1-4)GlcNAc
# In short: as §1
# [36] = biological target: Neu5Ac(a2-6)Gal(b1-4)GlcNAc(b1-2)[Neu5Ac(a2-6)Gal(b1-4)GlcNAc(b1-4)]Man(a1-3)[GlcNAc(b1-4)][Neu5Ac(a2-6)Gal(b1-4)GlcNAc(b1-4)Man(a1-6)]Man(b1-4)GlcNAc(b1-4)GlcNAc
# In short: as §1
# [37] = biological target: Neu5Ac(a2-6)Gal(b1-4)GlcNAc(b1-2)[Neu5Ac(a2-6)Gal(b1-4)GlcNAc(b1-6)]Man(a1-6)[Neu5Ac(a2-6)Gal(b1-4)GlcNAc(b1-2)Man(a1-3)][GlcNAc(b1-4)]Man(b1-4)GlcNAc(b1-4)GlcNAc
# In short: as §1
# [38] = biological target: Neu5Ac(a2-6)Gal(b1-4)GlcNAc(b1-3)Gal(b1-3)GlcNAc
# In short: as §1
# [39] = biological target: Neu5Ac(a2-6)Gal(b1-4)GlcNAc(b1-3)Gal(b1-4)GlcNAc
# In short: as §1
# [40] = biological target: Neu5Ac(a2-6)Gal(b1-4)GlcNAc(b1-3)Gal(b1-4)GlcNAc(b1-2)Man(a1-3)[Neu5Ac(a2-6)Gal(b1-4)GlcNAc(b1-3)Gal(b1-4)GlcNAc(b1-2)Man(a1-6)]GalNAc
# In short: as §1
# [41] = biological target: Neu5Ac(a2-6)Gal(b1-4)GlcNAc(b1-3)Gal(b1-4)GlcNAc(b1-3)Gal(b1-4)GlcNAc
# In short: as §1
# [42] = biological target: Neu5Ac(a2-6)Gal(b1-4)GlcNAc(b1-3)Gal(b1-4)GlcNAc(b1-3)Gal(b1-4)GlcNAc(b1-2)Man(a1-3)[Neu5Ac(a2-6)Gal(b1-4)GlcNAc(b1-3)Gal(b1-4)GlcNAc(b1-3)Gal(b1-4)GlcNAc(b1-2)Man(a1-6)]GalNAc
# In short: as §1
binder,measurement,setting,value
Pwp3 (Candida glabrata) (protein) MGSSHHHHHHSSGLVPRGSHMASKNPVDFTTVCQFPDNFSKKPGFLATTARLGLWITGNSYKELLNYPGTFTLTTQQASTTTPNIQLRGTDLFTTIYGLTVYPLYLLVELQGYFVPTQSGMYTFSLTGSDDAAIIFIGNPSTFPCDAFKTWPQATANDITVTDSINPSRTLYMVKGVAYPLRIAYYNGLGNGVLNAAFTDPSGTKRTDWNGYIWQYDQCSTCTYK,glycan array binding signal (z-score),[1],-0.242
same,glycan array binding signal (z-score),[2],1.44
same,glycan array binding signal (z-score),[3],-0.702
same,glycan array binding signal (z-score),[4],-0.776
same,glycan array binding signal (z-score),[5],0.139
same,glycan array binding signal (z-score),[6],-0.143
same,glycan array binding signal (z-score),[7],-0.349
same,glycan array binding signal (z-score),[8],-0.246
same,glycan array binding signal (z-score),[9],-0.332
same,glycan array binding signal (z-score),[10],-0.669
same,glycan array binding signal (z-score),[11],-1.81
same,glycan array binding signal (z-score),[12],0.931
same,glycan array binding signal (z-score),[13],-0.603
same,glycan array binding signal (z-score),[14],-0.707
same,glycan array binding signal (z-score),[15],-0.332
same,glycan array binding signal (z-score),Neu5Ac(a2-3)GalNAc,-0.215
same,glycan array binding signal (z-score),[16],0.357
same,glycan array binding signal (z-score),[17],-0.171
same,glycan array binding signal (z-score),[18],-0.119
same,glycan array binding signal (z-score),[19],-0.31
same,glycan array binding signal (z-score),[20],-0.14
same,glycan array binding signal (z-score),Neu5Ac(a2-6)Gal,-0.64
same,glycan array binding signal (z-score),[21],-0.183
same,glycan array binding signal (z-score),Neu5Ac(a2-6)Gal(b1-4)Glc,0.297
same,glycan array binding signal (z-score),[22],0.265
same,glycan array binding signal (z-score),[23],-0.372
same,glycan array binding signal (z-score),[24],-0.617
same,glycan array binding signal (z-score),[25],0.054
same,glycan array binding signal (z-score),[26],1.66
same,glycan array binding signal (z-score),[27],-0.074
same,glycan array binding signal (z-score),[28],-0.141
same,glycan array binding signal (z-score),[29],-0.002
same,glycan array binding signal (z-score),[30],-0.429
same,glycan array binding signal (z-score),[31],-0.519
same,glycan array binding signal (z-score),[32],-0.713
same,glycan array binding signal (z-score),[33],-0.199
same,glycan array binding signal (z-score),[34],0.611
same,glycan array binding signal (z-score),[35],0.295
same,glycan array binding signal (z-score),[36],1.39
same,glycan array binding signal (z-score),[37],-0.03
same,glycan array binding signal (z-score),[38],-0.21
same,glycan array binding signal (z-score),[39],0.007
same,glycan array binding signal (z-score),[40],-0.213
same,glycan array binding signal (z-score),[41],-0.291
same,glycan array binding signal (z-score),[42],1.6
